Laboratory results reported in PubChem BioAssay AID1465 (SRMLSC, 2008).
The campaign covered roughly 220,000 compounds. About 160 (0.073%) were called active. Inconclusive means that the source gave no clear call. Such entries were picked first, then a sample of the others.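 How the source made its calls: active means fold induction of absorbance versus untreated yeast above a set limit, then at least 30% activation at any dose in follow-up; inconclusive means repeats straddling the limit, or above it without dose testing; inactive means fold induction below the set limit.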

experiment: enhancers of respiration in Yfh1-depleted yeast, dose response, Friedreich's ataxia, plus single-dose screen (AID 1465); conditions: S. cerevisiae Yfh1-off respiration, WST-1 reduction, 72 h; at 50 µM; hits give high values

| Compound | fold induction |
| --- | --- |
| CCc1ccc(NC(=O)CS(=O)CC(=O)NC(C)CCc2ccco2)cc1 (stereo not given) | inconclusive: 1.09 |
| CO[C@H]1C=CO[C@@]2(C)Oc3c(C)c(O)c4c(O)c(c(C=NN5CCN(C)CC5)c(O)c4c3C2=O)NC(=O)C(C)=CC=C[C@H](C)[C@H](O)[C@@H](C)[C@@H](O)[C@@H](C)[C@H](OC(C)=O)[C@@H]1C | inconclusive: 1.36 |
| CN(C)c1ccc(NC(=O)C(=O)NCCOc2ccccc2)cc1 | inactive: 0.95 |
| CCOc1cccc(-c2cc(-c3n[nH]c(=S)n3CC)c3ccccc3n2)c1 | inconclusive: 1.35 |
| Cc1ccc(-n2c(SCC(=O)Nc3cc(C)on3)nc3c(c2=O)SC(C)C3)cc1 (stereo not given) | inactive: 1.05 |
| CCOC(=O)C1=C(Cc2ccc(Cl)cc2)C(=O)c2ccccc2C1=O | inactive: 1.27 |
| O=[N+]([O-])c1cccc(CSc2cccc[n+]2[O-])c1 | inactive: 1.1 |
| Cc1ccc(NC(=O)N(Cc2ccc3c(c2)OCO3)Cc2cc3cc4c(cc3[nH]c2=O)OCCO4)cc1 | inconclusive: 1.12 |
| NC(=S)NNc1cccc2cccnc12 | inconclusive: 1.33 |
| Cc1ccc(C(=O)Nc2ccc(C)c(S(=O)(=O)N(C)C)c2)s1 | inconclusive: 1.33 |
| O=C(O)c1cccc(NC(=S)N/N=C/c2cccc(O)c2)c1 | inactive: 1.03 |
| O=[N+]([O-])c1cccc(-c2ccc(/C=N/NC(=S)Nc3ccccc3)o2)c1 | inconclusive: 1.58 |
| Cn1cc(C(=O)CCl)c2ccccc21 | inconclusive: 1.35 |
| COc1ccccc1NS(=O)(=O)c1cccc(C(=O)N/N=C/c2ccccc2OCC(=O)O)c1 | inactive: 0.99 |
| CCCCC(=O)NC(=S)NNC(=O)CC#N | inactive: 0.83 |
| O=[N+]([O-])c1cccc(/C=N/Nc2nc(NCc3ccccc3)nc(N3CCOCC3)n2)c1 | inactive: 1.03 |
| CCCC(=O)NC(c1ccc(OC)cc1)c1ccc2cccnc2c1O (stereo not given) | inactive: 0.96 |
| CCOC(=O)c1c(C)nc2sc(C(=O)Nc3ccc(C(C)=O)cc3)c(N)c2c1-c1ccc(OC)cc1 | inconclusive: 1.23 |
| CCNS(=O)(=O)c1ccc(NC(=O)Nc2ccccc2OC)cc1 | inactive: 1.1 |
| CCc1cc2cccc(C)c2nc1SCC(=O)Nc1nonc1C | inconclusive: 1.35 |
| COc1cc(/C=N/NC(=O)C(Cc2c[nH]c3ccccc23)NC(=O)OCC(C)C)cc([N+](=O)[O-])c1OCc1ccccc1 (stereo not given) | inconclusive: 1.34 |
| O=[N+]([O-])c1cc(Cl)c(O)c2ncccc12 | inactive: 1.15 |
| Cn1c2c(c(=O)n(C)c1=O)C1(C(=O)Nc3ccccc31)C(C#N)=C(N)O2 (stereo not given) | inconclusive: 1.39 |
| CC(=O)N1CC[n+]2c(-c3ccc(Cl)cc3)csc21 | inconclusive: 1.33 |
| CC(C)OCCCNC(=O)CCC(=O)NNc1nc2ccccc2c2nc(-c3ccccc3)nn12 | inactive: 0.97 |
| Cc1cc(C)nc(NC2=NCC(=O)N2CCc2c[nH]c3ccccc23)n1 | inconclusive: 1.22 |
| Cc1cccc2c1N(CCOc1ccccc1)C(=O)C2=O | inconclusive: 1.33 |
| O=C(O)CCc1nn2c3ccccc3nc2n(CCN2CCCCC2)c1=O | inactive: 1.09 |

| Compound | fold induction |
| --- | --- |
| CC(C)CC(C(=O)Nc1oc(-c2ccccc2)c(-c2ccccc2)c1C#N)N1C(=O)c2ccccc2C1=O (stereo not given) | inconclusive: 1.11 |
| O=[N+]([O-])c1ccc(O)c2ncccc12 | inactive: 1.17 |
| CC1=C(N2CCOCC2)CCC1=O | inactive: 0.92 |
| CC1(O)C(=O)c2ccccc2N(c2ccccc2)C1=O (stereo not given) | inconclusive: 1.12 |
| Cc1nn2c(-c3cccc(NC(=O)CSc4nc5ccccc5o4)c3)nnc2c2ccccc12 | inconclusive: 1.08 |
| CCN1C(=O)/C(=C2\Sc3ccccc3N2CC)OC1=S | inconclusive: 1.33 |
| COc1ccc(/C=N\NC(=S)SCN2C(=O)C3CCC(C)(C2=O)C3(C)C)cc1 (stereo not given) | inconclusive: 1.03 |
| Cc1cc(C)n(-c2nc(SCCN(C)C)c3c4c(sc3n2)COC(C)(C)C4)n1 | inconclusive: 1.37 |
| CCc1oc2ccccc2c1C(=O)CCN1CCCCC1 | inconclusive: 1.4 |
| CCCCOc1cccc(-c2cc(C(=O)NNC(=S)NCC)c3ccccc3n2)c1 | inconclusive: 1.53 |
| O=C(C=C1CCN(c2ncc(C(F)(F)F)cc2Cl)CC1)NNC(=O)Nc1ccccc1 | inactive: 0.89 |
| O=[N+]([O-])c1ccc(N2CCN(S(=O)(=O)c3ccc(Cl)cc3)CC2)cc1NCc1cccnc1 | inconclusive: 1.15 |
| Cc1ccc(NC(=S)NCCC(c2ccccc2)c2ccccc2)c(C)c1 | inconclusive: 1.09 |
| COCc1cc(S(=O)c2ccc(Cl)cc2)nc(C)n1 (stereo not given) | inconclusive: 1.33 |
| CC1(C)CC(Nc2ccc(Nc3ccccc3)cc2)CC(C)(C)N1 | inconclusive: 1.44 |
| CC(=O)Nc1ccc(CN2CCCC(C(=O)c3ccc(C(F)(F)F)cc3)C2)cc1 (stereo not given) | inactive: 0.88 |
| Cc1ccc(-n2ncc3c(N4CCC5(CC4)OCCO5)ncnc32)c(C)c1 | inconclusive: 1.37 |
| C/C(=N/Nc1nc(-c2ccc(Cl)cc2)cs1)c1cccs1 | inconclusive: 1.32 |
| COC(=O)c1cc(OC)c(OC)cc1NC(=O)c1cccc(OC)c1OC | inactive: 1.09 |
| COc1ccc(N2CCN(C(=O)c3ccc(C(C)(C)C)cc3)CC2)cc1 | inactive: 0.96 |
| C=CCn1c(SCC(=O)Nc2sccc2C#N)nc2sc(C)c(C)c2c1=O | inconclusive: 1.09 |
| Cc1cc(C)c2nc(-c3ccccn3)cc(C(=O)Nc3ccc(S(=O)(=O)Nc4cc(C)on4)cc3)c2c1 | inconclusive: 8.12 |
| O=C1C(Cl)=C(Nc2ccc(O)cc2)C(=O)c2ccccc21 | inactive: 1.23 |
| O=C1N=c2ccccc2=C1c1sc(=S)n(CC2CCCO2)c1O (stereo not given) | inconclusive: 1.28 |
| O=C(NC(=S)Nc1ccc(Oc2ccc(Cl)cc2)cc1)c1ccccc1 | inconclusive: 1.14 |
| COc1ccc(/C=C2/C(=O)N(c3nc4ccccc4s3)N=C2CSc2ccc(Cl)cc2)cc1 | inconclusive: 1.35 |
| COCC(=O)N1CCCN(c2nc3c(C)cccc3cc2C#N)CC1 | inactive: 0.96 |
